First the molecules themselves.
B1: PhoQ; a variant is named by its letters at X, in order, P23837 (parent)
chain: MKKLLRLFFPLSLRVRFLLATAAVVLVLSLAYGMVALIGYSVSFDKTTFRLLRGESNLFYTLAKWENNKLHVELPENIDKQSPTMTLIYDENGQLLWAQRDVPWLMKMIQPDWLKSNGFHEIEADVNDTSLLLSGDHSIQQQLQEVREDDDDAEMTHSVAVNVYPATSRMPKLTIVVVDTIPVELKSSYMVWSWFIYVLSANLLLVIPLLWVAAWWSLRPIEALAKEVRELEEHNRELLNPATTRELTSLVRNLNRLLKSERERYDKYRTTLTDLTHSLKTPLXXLQXXLRSLRSEKMSVSDAEPVMLEQISRISQQIGYYLHRASMRGGTLLSRELHPVAPLLDNLTSALNKVYQRKGVNISLDISPEISFVGEQNDFVEVMGNVLDNACKYCLEFVEISARQTDEHLYIVVEDDGPGIPLSKREVIFDRGQRVDTLRPGQGVGLAVAREITEQYEGKIVAGESMLGGARMEVIFGRQHSAPKDE

The other results are listed elsewhere or left out.

This assay covers variants of B1. Description: enrichment ratio after two sorts for PhoP signalling (ratio (wild type AVST 3.29)); higher = more functional. The conditions noted are these: with PhoP (E. coli).
In the case of EPSN, the enrichment ratio is at most 0.25.

As to HRYR, the enrichment ratio is at most 0.25.

On to VCMQ, for which the enrichment ratio is at most 0.25.

Consider VLNN, for which the enrichment ratio is at most 0.25.

Turning to DCVD, the enrichment ratio is at most 0.25.

Turning to NHCE, the enrichment ratio is at most 0.25.

Turning to LMAY, the enrichment ratio is at most 0.25.

As to FPDR, the enrichment ratio is at most 0.25.

Consider IYAH, for which the enrichment ratio is at most 0.25.

Consider YFDT, for which the enrichment ratio was at most 0.25.

As to TCWM, the enrichment ratio is at most 0.25.

For ICWY, the enrichment ratio was at most 0.25.

MEWS: the enrichment ratio was at most 0.25.

For EVAA, the enrichment ratio is at most 0.25.

Take LTVY: the enrichment ratio was at most 0.25.

Take VYCA: the enrichment ratio amounted to 0.41.

Regarding YQII, the enrichment ratio was at most 0.25.

In the case of DEVH, the enrichment ratio was at most 0.25.

In the case of EYRI, the enrichment ratio was at most 0.25.

As to LETN, the enrichment ratio is at most 0.25.

For the variant DHYP, the enrichment ratio was at most 0.25.

As for GMQR, the enrichment ratio is at most 0.25.

For FSMV, the enrichment ratio turned out to be 9.33.

As to PYEE, the enrichment ratio is at most 0.25.

For the variant GLEF, the enrichment ratio is at most 0.25.

On to IHMM, for which the enrichment ratio was at most 0.25.

In the case of SGTQ, the enrichment ratio was determined as 17.4.

ITNT: the enrichment ratio is at most 0.25.

Regarding IHED, the enrichment ratio is at most 0.25.

As to MHAA, the enrichment ratio is at most 0.25.

On to VDPL, for which the enrichment ratio is at most 0.25.

With YLGY, the enrichment ratio was at most 0.25.

As to GKWH, the enrichment ratio was at most 0.25.

As for RAFC, the enrichment ratio is at most 0.25.

Consider FWKP, for which the enrichment ratio was at most 0.25.

As to RYIG, the enrichment ratio is at most 0.25.

DNIE: the enrichment ratio is at most 0.25.

On to TTAN, for which the enrichment ratio worked out at 6.61.

On to NNRL, for which the enrichment ratio was at most 0.25.

As for RLNR, the enrichment ratio was at most 0.25.

Regarding DYYY, the enrichment ratio was at most 0.25.

Consider SVEP, for which the enrichment ratio was at most 0.25.

As to RCSH, the enrichment ratio is at most 0.25.

On to LMLK, for which the enrichment ratio is at most 0.25.

For PTFP, the enrichment ratio was at most 0.25.

With YEPP, the enrichment ratio was at most 0.25.

On to GLRD, for which the enrichment ratio was at most 0.25.

With QECP, the enrichment ratio is at most 0.25.

For SACE, the enrichment ratio was determined as 11.7.

For MAYN, the enrichment ratio came to 16.6.

Turning to QASQ, the enrichment ratio was determined as 23.3.

In the case of SHHQ, the enrichment ratio is at most 0.25.

For SVCW, the enrichment ratio was at most 0.25.

Take TLKA: the enrichment ratio is at most 0.25.

On to ILWV, for which the enrichment ratio was at most 0.25.

Regarding RLET, the enrichment ratio is at most 0.25.

For the variant IHCK, the enrichment ratio was at most 0.25.

With EQNS, the enrichment ratio is at most 0.25.

PGWY: the enrichment ratio is at most 0.25.

With HIRA, the enrichment ratio is at most 0.25.

For the variant HMQR, the enrichment ratio is at most 0.25.

In the case of RMFM, the enrichment ratio was at most 0.25.

Turning to DESQ, the enrichment ratio is at most 0.25.

Consider QIDA, for which the enrichment ratio was at most 0.25.

In the case of MLHE, the enrichment ratio was at most 0.25.

Regarding WPSW, the enrichment ratio is at most 0.25.

As to IGVI, the enrichment ratio was at most 0.25.

For the variant WDQI, the enrichment ratio is at most 0.25.

Regarding RMAP, the enrichment ratio was at most 0.25.

DHEV: the enrichment ratio is at most 0.25.

On to YPMS, for which the enrichment ratio was at most 0.25.

For the variant RDKC, the enrichment ratio is at most 0.25.

Take WMLE: the enrichment ratio is at most 0.25.

Take HMYE: the enrichment ratio was at most 0.25.

Take YNWG: the enrichment ratio was at most 0.25.

In the case of YNCM, the enrichment ratio was 1.98.

For HSIY, the enrichment ratio is at most 0.25.

APHC: the enrichment ratio is at most 0.25.

PAIL: the enrichment ratio is at most 0.25.

MPHW: the enrichment ratio was at most 0.25.

Turning to PIMH, the enrichment ratio was at most 0.25.

Consider SDPT, for which the enrichment ratio is at most 0.25.

VHRV: the enrichment ratio was at most 0.25.

For the variant FHIW, the enrichment ratio was at most 0.25.

In the case of RWHN, the enrichment ratio was at most 0.25.

MILI: the enrichment ratio turned out to be 3.97.

For the variant DTDH, the enrichment ratio was at most 0.25.

As to FYCG, the enrichment ratio was at most 0.25.

On to LIPQ, for which the enrichment ratio was at most 0.25.

With DPFW, the enrichment ratio was at most 0.25.

In the case of HDDD, the enrichment ratio is at most 0.25.

For MGES, the enrichment ratio is at most 0.25.

With INKR, the enrichment ratio was at most 0.25.

With WGIE, the enrichment ratio was at most 0.25.

In the case of MMGG, the enrichment ratio was at most 0.25.

On to PGFS, for which the enrichment ratio is at most 0.25.

Turning to FLFW, the enrichment ratio is at most 0.25.

In the case of YACM, the enrichment ratio is 8.41.

For the variant TPYA, the enrichment ratio was at most 0.25.

As to SDAI, the enrichment ratio worked out at 4.77.

For FLEC, the enrichment ratio is at most 0.25.

As for DEAD, the enrichment ratio was at most 0.25.

Take DIRQ: the enrichment ratio is at most 0.25.

As for TALI, the enrichment ratio was 18.1.

Consider ASLM, for which the enrichment ratio came to 15.3.

For GMYK, the enrichment ratio is at most 0.25.

Take DLQI: the enrichment ratio was at most 0.25.

As to EFCC, the enrichment ratio was at most 0.25.

Consider MGKM, for which the enrichment ratio is at most 0.25.

On to EFCY, for which the enrichment ratio was at most 0.25.

QRNP: the enrichment ratio was at most 0.25.

For the variant KVCW, the enrichment ratio was at most 0.25.

Turning to IWEC, the enrichment ratio is at most 0.25.

For the variant WETF, the enrichment ratio was at most 0.25.

Turning to YILC, the enrichment ratio is at most 0.25.

Regarding ANAK, the enrichment ratio was at most 0.25.

On to MSGK, for which the enrichment ratio is at most 0.25.

For KEAR, the enrichment ratio was at most 0.25.

For the variant FEAA, the enrichment ratio was at most 0.25.

Regarding PYIM, the enrichment ratio was at most 0.25.

Turning to MTFS, the enrichment ratio is at most 0.25.

With YCAM, the enrichment ratio is at most 0.25.

Regarding ANFT, the enrichment ratio was at most 0.25.

On to GSIE, for which the enrichment ratio was at most 0.25.

With AGKH, the enrichment ratio was at most 0.25.

As for IPMW, the enrichment ratio is at most 0.25.

Regarding SNSR, the enrichment ratio was at most 0.25.

As for GMEW, the enrichment ratio was at most 0.25.

Consider HMHN, for which the enrichment ratio is at most 0.25.

Consider RACW, for which the enrichment ratio is at most 0.25.

Consider ANWQ, for which the enrichment ratio is at most 0.25.

Take LDSD: the enrichment ratio was at most 0.25.

Turning to IKVR, the enrichment ratio was at most 0.25.

KDSI: the enrichment ratio was at most 0.25.

DLMC: the enrichment ratio is at most 0.25.

Take AMMQ: the enrichment ratio turned out to be 13.1.

On to TKRS, for which the enrichment ratio stood at 0.257.

QEVK: the enrichment ratio is at most 0.25.

As to DMGN, the enrichment ratio is at most 0.25.

On to YRMT, for which the enrichment ratio was at most 0.25.

For the variant NVTF, the enrichment ratio was at most 0.25.

For the variant HPTW, the enrichment ratio was at most 0.25.

In the case of TANM, the enrichment ratio came to 19.5.

On to DNTF, for which the enrichment ratio was at most 0.25.

In the case of KCNG, the enrichment ratio was at most 0.25.

In the case of KMFS, the enrichment ratio was at most 0.25.

On to NSSY, for which the enrichment ratio is at most 0.25.

AKFM: the enrichment ratio was 0.887.

DFAV: the enrichment ratio is at most 0.25.

As for MHAN, the enrichment ratio was at most 0.25.

In the case of SNLI, the enrichment ratio was 11.3.

Turning to IAAC, the enrichment ratio is 0.266.

For NNKH, the enrichment ratio is at most 0.25.
